Results reported in the supplement of paper PMC3334620.
Whole data set: some 33,000 sequences, median “E-score (-0.5 to 0.5)” near -0.012, cut for the highest 2% near 0.27. Some of the results follow.

target: T1, Vhr1 (UniProt P40522); assay: PBM E-score (8-mer binding enrichment) (E-score (-0.5 to 0.5)); higher = stronger / more preferred TF binding; most listed sequences are background and not binding sites; conditions: protein concentration: 200 nM; construct: GST-full length
T1 sequence: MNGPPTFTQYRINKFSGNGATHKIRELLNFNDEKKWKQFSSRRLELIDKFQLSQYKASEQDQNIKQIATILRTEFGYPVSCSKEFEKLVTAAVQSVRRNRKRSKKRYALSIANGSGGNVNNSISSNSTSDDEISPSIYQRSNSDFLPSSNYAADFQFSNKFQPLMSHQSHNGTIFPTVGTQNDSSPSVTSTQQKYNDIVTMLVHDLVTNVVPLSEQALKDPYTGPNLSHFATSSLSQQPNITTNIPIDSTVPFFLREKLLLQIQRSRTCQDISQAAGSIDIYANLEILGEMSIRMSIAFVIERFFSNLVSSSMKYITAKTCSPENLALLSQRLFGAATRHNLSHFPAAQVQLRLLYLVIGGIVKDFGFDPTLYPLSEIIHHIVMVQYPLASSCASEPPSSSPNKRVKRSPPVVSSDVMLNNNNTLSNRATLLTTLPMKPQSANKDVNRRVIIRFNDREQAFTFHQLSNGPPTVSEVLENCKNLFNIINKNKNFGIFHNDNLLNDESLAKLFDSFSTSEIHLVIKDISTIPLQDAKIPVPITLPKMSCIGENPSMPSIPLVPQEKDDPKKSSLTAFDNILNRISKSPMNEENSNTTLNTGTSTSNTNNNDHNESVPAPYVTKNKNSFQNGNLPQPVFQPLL
Protocol: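 Universal 'all 10-mer' protein binding microarrays (Agilent AMADID 015681) probed with GST-tagged S. cerevisiae TFs (full-length or DBD) made by in vitro transcription/translation (PURExpress), about 100-200 nM. Bound TF was detected with fluorescent anti-GST. Each ungapped 8-mer (which stands for itself and its reverse complement) is scored by the PBM enrichment score (E-score), a modified Wilcoxon-Mann-Whitney statistic from -0.5 to +0.5, computed with the Universal PBM Analysis Suite. Scale: above 0.35 generally sequence-specific binding.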

| Sequence | PBM E-score |
| --- | --- |
| ACCAGCCG | 0.135 |
| CGTAGTCA | 0.372 |
| TACAGAAA | 0.0107 |
| CGACCTCC | 0.163 |
| AGGGGAAG | 0.00899 |
| CCTGTGTC | 0.192 |
| CGTAGTAC | 0.023 |
| GATCGGGA | -0.124 |
| CTAAATAG | -0.015 |
| AGTCAATG | 0.129 |
| AAAGGGGT | -0.181 |
| CCTACTTC | -0.0854 |
| ATATACAC | 0.158 |
| AACAACGG | -0.0109 |
| CCGCTCAA | -0.061 |
| GCCTCCGA | -0.0639 |
| ATCAGCGC | -0.0706 |
| AGACACTG | 0.116 |
| CTGCATCA | 0.176 |
| CAGCCCCC | -0.2 |
| CTGGGAGA | -0.0702 |
| AGCTGGGG | 0.0821 |
| GTACCGAA | -0.238 |
| CGCACCAA | 0.143 |
| ACGAATTC | -0.13 |

| Sequence | PBM E-score |
| --- | --- |
| GGGATCGA | 0.105 |
| ACCGTACC | -0.0234 |
| GTCCATCA | -0.104 |
| GTAAGGCA | -0.0893 |
| AGGTCCCG | -0.00127 |
| CACGGCTG | -0.0137 |
| CCCCCGGC | 0.1 |
| ATATGGAG | 0.0345 |
| GATCCCGA | 0.126 |
| ATGCAGAG | -0.0311 |
| ATGGCGAA | 0.0912 |
| GACAACTC | 0.077 |
| ACCCCCTC | -0.281 |
| CCATGGTC | 0.149 |
| AAAAACAA | -0.0531 |
| CGTCCTCA | -0.101 |
| GGCTGAGA | 0.0217 |
| CGAGCACA | 0.119 |
| GAATGTAA | -0.0483 |
| CGCGCTAA | 0.221 |
| AGCCTTTG | -0.12 |
| AACGGAAT | -0.0689 |
| ACAGCCGA | -0.16 |
| ACGTAGCA | 0.0758 |
| AAGGTTAA | -0.24 |

| Sequence | PBM E-score |
| --- | --- |
| CGACGACC | 0.00875 |
| CGCCTTCC | -0.172 |
| ATTCCAAC | 0.0512 |
| GCCCGGCC | -0.00271 |
| AAACATTC | -0.172 |
| GGCGGATA | 0.0479 |
| AGATTAGG | -0.104 |
| GCCAACCA | -0.199 |
| CGTGCGTA | -0.0417 |
| AGCCGGAA | 0.0165 |
| CATTAGCA | -0.152 |
| TGACCTAA | -0.021 |
| AGGTGACT | 0.425 |
| CTTTCCGC | -0.224 |
| GCAGATCC | 0.064 |
| CCACATTC | 0.1 |
| AGGGGGCC | -0.212 |
| CTAAGATC | -0.0048 |
| CCCAATAG | -0.0738 |
| AGCGTTTC | -0.221 |
| GCGTCCGA | 0.0308 |
| GGTAGGTA | 0.0727 |
| ATCCTGTG | 0.104 |
| GATAGACA | 0.165 |
| CCAGTCGG | 0.0956 |

| Sequence | PBM E-score |
| --- | --- |
| ATGGGCGG | 0.237 |
| AATAATTA | 0.0796 |
| AAGTATGG | 0.142 |
| ATTAGTAC | 0.142 |
| CAGGTAAC | -0.00196 |
| CGTATCTA | 0.199 |
| ACAGAAAC | 0.0542 |
| CCCTCAAC | -0.246 |
| CGATATCG | -0.0182 |
| AGATGAGG | -0.182 |
| AGGAGTGC | -0.046 |
| GAAACCTC | -0.0997 |
| AAGAAAGA | -0.19 |
| CTAGAAAC | -0.252 |
| GGTGCCGA | -0.0472 |
| ACGGTCGG | 0.0799 |
| TGATCGCA | -0.0688 |
| ATCTGACA | -0.0887 |
| AGCTCTCG | -0.158 |
| CCATGTAG | 0.00387 |
| AATGCCCT | -0.229 |
| ATAGCTTC | -0.214 |
| GATACTAC | 0.112 |
| CTCGGGTC | -0.0496 |
| AGGAGGCC | -0.309 |

| Sequence | PBM E-score |
| --- | --- |
| GAATATAA | -0.0256 |
| CGGTAATA | 0.112 |
| CCTCTCCG | -0.235 |
| AGTGACAA | 0.0325 |
| AGTAGGCA | 0.154 |
| ACGACTCG | 0.327 |
| TCACGACA | 0.0788 |
| TTACGAAA | -0.267 |
| AAGCCATT | 0.0335 |
| AACTATTG | 0.13 |
| AGTAACCC | 0.131 |
| CCCAAAGC | -0.248 |
| CCAGCCAC | 0.111 |
| ATTATTGA | 0.036 |
| GAGCCTAC | 0.0254 |
| ATGAAACG | -0.0278 |
| CCCCGTAA | 0.0107 |
| GAAAAGTC | -0.19 |
| AAGAGAGG | -0.2 |
| AAATGTTG | -0.291 |
| TACATGGA | 0.0672 |
| AGAATGCT | -0.049 |
| CCTCTCAG | -0.27 |
| GACTCCGC | 0.38 |
| GGCGCTAA | -0.112 |

| Sequence | PBM E-score |
| --- | --- |
| CTTTGCAA | -0.144 |
| ACCGGAAC | 0.175 |
| ACCCGTTG | 0.101 |
| AGACGTTG | 0.0126 |
| AGTAGTTC | 0.108 |
| CAAGCGCC | -0.167 |
| CACAGGAC | 0.149 |
| AGGGTTGC | -0.068 |
| ACTTTAGG | -0.213 |
| AAATCGAT | 0.0304 |
| GTCGGGCA | -0.127 |
| ACCTAGAG | -0.061 |
| GGTTCTCA | -0.0594 |
| CACTTCGG | 0.0782 |
| AGTGGCAG | -0.0742 |
| ATTATATG | 0.0829 |
| CTCAATGA | 0.105 |
| CCCCGTAG | -0.0848 |
| CGTGCGAC | 0.109 |
| TAGGACCA | -0.063 |
| CATCCAAA | 0.0787 |
| GTCCGGGA | 0.0879 |
| ATAATTCC | -0.158 |
| ACCTACCC | 0.0604 |
| ATCTCACA | 0.156 |

| Sequence | PBM E-score |
| --- | --- |
| CCAATATC | 0.0759 |
| CCTCACGA | -0.038 |
| TGCGAAAA | -0.0344 |
| TAACATTA | -0.0109 |
| AGCAAAGC | -0.0978 |
| CCGGCTTC | 0.0497 |
| GAGGGTGC | -0.121 |
| AAGTTGAT | -0.12 |
| CCTCTCTC | -0.232 |
| AGTGTCTG | 0.0892 |
| ACTGATGC | 0.078 |
| CATAATCA | 0.308 |
| TCGTGCAA | 0.0478 |
| CGCATGAC | 0.2 |
| ACTTATTC | 0.0504 |
| ACCCGGTC | -0.0722 |
| AAGCTTCG | -0.173 |
| AATTAATA | 0.102 |
| ATAATATA | 0.3 |
| ATCACGTG | -0.0446 |
| CGCTCCAG | -0.0885 |
| GAGTGCGC | -0.0251 |
